Reference: paper PMC12136788
Some of the results follow.

T1: UNK ZnF1-3 (human, UniProt Q9C0B0 31-174)
T1 sequence: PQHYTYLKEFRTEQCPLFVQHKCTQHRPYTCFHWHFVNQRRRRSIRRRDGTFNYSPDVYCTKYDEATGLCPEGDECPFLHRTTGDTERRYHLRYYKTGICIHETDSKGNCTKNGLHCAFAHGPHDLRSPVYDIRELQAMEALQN

B1: chr10:112343607:112343608:+_ENSG00000108055_ENST00000361804|hu_mus|FALSE|FALSE (ssRNA)
RNA: GGGAGUUCUACAGUCCGACGAUCUUCUAUUUUUUCAAGCAGCUUCUGCCUCUCUUUUAAUAAACGUUUCCGCUGUUCACUGUUGCCCGCCAGCUCAUCUUGUAAAUCCUUGGCUUUAAGCUCCAACUUGGUCCUUUGCUUAAUCAACAGAGGAUUGAGCAUCA
B2: chr4:141302222:141302223:+_ENSG00000153130_ENST00000394201|hu_mus|motif|central (ssRNA)
RNA: GGGAGUUCUACAGUCCGACGAUCCCUUUUGCUUUUUGUAUCAGUUGUUUGAAAAACACUAGAAGCAGACAUGAGGUUUUCGGUAUAUUGUCCGAGAACUUGAUUUUCCGACUUUAGCUUCAGAUUUUCUUCCUUAACUGCAUCCAACAGAGGAUUGAGCAUCA
B3: chr8:117878989:117878990:-_ENSG00000164754_ENST00000297338|hu_hu|hu_hu_hu_mus_True|18_68 (ssRNA)
RNA: GGGAGUUCUACAGUCCGACGAUCCCAGAGGCCCUCGUUUACUGAGGACAAAAUGUGCGUAGAACAUUGUUCUGGCUUGCUAUGAAAUAAGAAGAAACCUGGAUCUCGGCGGGGAGCUUGGGCGGGCGGGUGGCCCGGGGAGGGCAACAGAGGAUUGAGCAUCA
B4: chr3:95657547:95657548:-_ENSMUSG00000015748_ENSMUST00000015892|mus_mus|FALSE|FALSE (ssRNA)
RNA: GGGAGUUCUACAGUCCGACGAUCUUAGACAGCGCCAUUUCGGAGAAAAUGGAGAAUGAGAGCUCCAAUGGGACAAAAAAACUACACCUCACAAACUUCAGCCCCUGAGACGGAGCCCGAACGUUACACCGGAACCGGAAACCUCAACAGAGGAUUGAGCAUCA
B5: 49196445_49197903_1304_3pUTR_ENSG00000196396_ENST00000371621|human|control|control (ssRNA)
RNA: GGGAGUUCUACAGUCCGACGAUCUUCUCGGGCAGUGACGGCUCCCCUUUGGCUGGGGAGGCAGCCUGGGCACCUCGAAGACUUCCCCCCACGACCCGACUUCUAACUUCAGUGUCUUGACUCAUGCUUUCGAUGCCGUAGGGUCAACAGAGGAUUGAGCAUCA
B6: chr1:39494564:39494565:+_ENSG00000168653_ENST00000372967|hu_hu|hu_hu_hu_mus_True|8_28 (ssRNA)
RNA: GGGAGUUCUACAGUCCGACGAUCAUGCAUUCGCCUCAUCGUUUUGUACCGAAGCAAGCACUCUUCGAAGUCAUCGAACUCUAUCUUGCACUCCUUUUUCGCCCGGGUAUAACCGAUCCCGUGUGCACAUUCUAUCCACUCUUUCAACAGAGGAUUGAGCAUCA
B7: chr12:104381838:104381839:+_ENSG00000139372_ENST00000392872|hu_mus|motif|central (ssRNA)
RNA: GGGAGUUCUACAGUCCGACGAUCCAGUAAUCAACAGUAGUGACAAUAAUUUUUAAAUCAUUGACAAAUGAUUAGCUUUCCCGGGAAGAGAAGUUCUGUAUCAGUACAUCCCAUGUACACAGCACCAGUUUAAACAGGAUUAUCCAACAGAGGAUUGAGCAUCA
B8: 216248192_216248848_5114_CDS_ENSG00000115414_ENST00000323926|human|control|control (ssRNA)
RNA: GGGAGUUCUACAGUCCGACGAUCUGGUUUGUCAAUUUCUGUUCGGUAAUUAAUGGAAAUUGGCUUGCUGCUUGCGGGGCUGUCUCCACGGCCAGUGACAGCAUACACAGUGAUGGUAUAAUCAACUCCAGGUUUAAGGCCGCUCAACAGAGGAUUGAGCAUCA
B9: chr13:104551264:104551265:-_ENSMUSG00000032621_ENSMUST00000074616|mus_hu|FALSE|FALSE (ssRNA)
RNA: GGGAGUUCUACAGUCCGACGAUCUCCAAGUGUUGCAAUGUUGGGGUCUAGUGCUGCUGCUGGUAUAGCUCCCAAACUGCUAAGUGAAACACCAAGAGUAGUCAAAGGAUUUGGGGUCGGUAUUGGAAGCAAUCCUGCACCAGGCAACAGAGGAUUGAGCAUCA
B10: chr7:112757510:112757511:-_ENSG00000214194_ENST00000397764|hu_hu|FALSE|FALSE (ssRNA)
RNA: GGGAGUUCUACAGUCCGACGAUCUUUUCGUGCAUAUACCCCCAAGCAGGCACAAAUGCCUGUAAUGCUGAGAACCACACCUAACAAAAGGGCGAUUGCAUCACCGGCUUCUACUGCUUCCACAACAGGCAGCACCAAAAGCAGCAACAGAGGAUUGAGCAUCA
B11: chr4:148551591:148551592:-_ENSMUSG00000063077_ENSMUST00000060537|mus_hu|mus_mus_mus_hu_False|8_78 (ssRNA)
RNA: GGGAGUUCUACAGUCCGACGAUCACCUGACAAAAUUAAAUAUCCCUGUAAAUUAGACAAGAAGCAGCAGGCAACAAAGUCUUUGCUUUGGAAUAUGUGCCAGGAAAAGUCAUCUUGUUUUUAGAUCACACCUUUCAGUUCACACAACAGAGGAUUGAGCAUCA
B12: chr9:35286173:35286174:+_ENSMUSG00000038119_ENSMUST00000042842|mus_mus|motif|central (ssRNA)
RNA: GGGAGUUCUACAGUCCGACGAUCAGUAUUAUUGUUACUUGAUGGAACAUACGUCCAUUUCAGCAUGAUCUGAGUGUCGCGGACAGCCUCUGUGUAUGCGAUGUGAGGUCCAGUUAUUGGGCGAUUGGAAAAACGAUUUGGGAACAACAGAGGAUUGAGCAUCA
B13: chr2:169732673:169732674:-_ENSG00000152253_ENST00000282074|hu_mus|FALSE|FALSE (ssRNA)
RNA: GGGAGUUCUACAGUCCGACGAUCAUACAGAUCCGCUGAUUUCUGCAGUCCUUUCAAUCUCUCUUCAUUAGCUUUGUUAGCAGUGGAAAUGGUUUCCCUCUUCCUAGCGUACUCUUCCUUGAGCUCCUGGAUUUUAGCAGUCAGCAACAGAGGAUUGAGCAUCA
B14: chr3:20008827:20008828:+_ENSMUSG00000002428_ENSMUST00000002502|mus_mus|motif|central (ssRNA)
RNA: GGGAGUUCUACAGUCCGACGAUCUGAGGCUUUAAGAGGUGUUUCUAUUAAAGACAAGAAUGUGGUAAACUGAGAAACAACGGAACUUUUUAUGUUGGGGUCCUUUGUCCGUAAUUCAAUCAAAGCAUGCAUUAGAGCAUUAAUCAACAGAGGAUUGAGCAUCA
B15: 25800408_25800528_2498_CDS_ENSMUSG00000003378_ENSMUST00000003468|mouse|control|control (ssRNA)
RNA: GGGAGUUCUACAGUCCGACGAUCGUUCAUGGUGGACUCCAGCAGGAAGGCAUAGCGGGAGUUGAGGACGCGGGCGAUUCCCUCCUCUGUGCUCUUGACAAACACGCUGGGCUGCUUCGAUUGCAUGUAGUUCCACAUCCGCUGCAACAGAGGAUUGAGCAUCA
B16: chr1:10192443:10192444:+_ENSG00000130939_ENST00000377157|hu_hu|motif|central (ssRNA)
RNA: GGGAGUUCUACAGUCCGACGAUCGACAGCCGCCAUGUAACUGAGAGCAGCCUCACGGGUUUCGCCAUUUAACAAAAUACGGUGCAGAAUCUUAAAAAGCUCUUGCCUUCCGAGCUCUAAGUAAUGCUGCAAUGAUUGGCUAACCAACAGAGGAUUGAGCAUCA
B17: chr17:64801638:64801639:+_ENSG00000154229_ENST00000413366|hu_mus|hu_hu_hu_mus_False|18_58 (ssRNA)
RNA: GGGAGUUCUACAGUCCGACGAUCUAUAUAUAUAUAUACAUAUGUACACAUAUAUAGUAAAACCCUAGUUAAACGUGUAAACUAGCCAUUCAUUUUUAAAAUUACAUCUACAUUAAAAAAGUAAUCUAUCUGAUAGAGUGCCAGCAACAGAGGAUUGAGCAUCA
B18: chr7:20150648:20150649:-_ENSMUSG00000044709_ENSMUST00000117222|mus_hu|FALSE|FALSE (ssRNA)
RNA: GGGAGUUCUACAGUCCGACGAUCCUUGAAGGUAUAUGAAAUAAUGUCACUACAUCGGAGCAGCGCCUCUGCUUGCACACCUAUGGGAGUCUGCAGCUGUGACACGUAGAAGUUGGCCACAUCCAGGUCGGUGGCUCCAAAGUGCAACAGAGGAUUGAGCAUCA
B19: 8912981_8916296_215_3pUTR_ENSMUSG00000023156_ENSMUST00000023924|mouse|control|control (ssRNA)
RNA: GGGAGUUCUACAGUCCGACGAUCAUGUAGUGAUACUCUGAGGGGCUCUUGUAAACUACUCUUUCAUAUGCAGUCGCUGGCAUCUUCCAACAUGGACACCUGCCCCGCGAGGCUAAACCGCCUCGGCCCAGGACGGAGAGGAUCCAACAGAGGAUUGAGCAUCA
B20: 24911426_24911546_652_3pUTR_ENSMUSG00000006476_ENSMUST00000102931|mouse|control|control (ssRNA)
RNA: GGGAGUUCUACAGUCCGACGAUCAGCUGGGCACAUCCUGGGCACUCUUUGGAGCCCUGGCGGCUUCCUGCCCAGCUUUGGCAGGGCCUGCUGAUGUCCUCCCGGCUGCUGCCUGGGCUGGCACGCAGGGGCUGGCUGUGGUGGCAACAGAGGAUUGAGCAUCA
B21: chr10:126434673:126434674:+_ENSMUSG00000078429_ENSMUST00000105256|mus_mus|FALSE|FALSE (ssRNA)
RNA: GGGAGUUCUACAGUCCGACGAUCUGACUGACAUUGAAAGCAACAGGGCUGAGAGCUCAGAGCUGCCCAGAGCACAGAGCUAUGAGGACCUCACUCAGUCCUAUAACGAGAAGCAGGAGGCAUUUGGCAAAUCAAGUAAGAGCACAACAGAGGAUUGAGCAUCA
B22: 74646769_74647007_1152_CDS_ENSG00000113161_ENST00000287936|human|control|control (ssRNA)
RNA: GGGAGUUCUACAGUCCGACGAUCGUUUUUUAAUGAGAGUGUAGAUUCUGUCUCUGUUUGUUCAAAGAAGAUGUACUUGACAGCCAGAAGGAGAGCUAAACUUAGGGUAAUAACUUGUUCAAUAUCCAUGCUGAUCAUUUUAGACAACAGAGGAUUGAGCAUCA

target: T1, UNK ZnF1-3; test: nsRBNS (natural sequence RNA bind-n-seq); RBNS binding buffer (assumed for nsRBNS): 25 mM Tris pH 7.5, 150 mM KCl, 3 mM MgCl2, 0.01% Triton X-100, 500 ug/ml BSA, 20 U/ml SUPERase-In, 4 C; UNK is unkempt and MSI1 is Musashi-1; names of the RNAs are library labels; protein concentration not given here; high values mean tight binding

Binder	binding signal
B1	0.317 enrichment R
B2	0.531 enrichment R
B3	0.82 enrichment R
B4	1.64 enrichment R
B5	0.605 enrichment R
B6	0.589 enrichment R
B7	1.25 enrichment R
B8	0.679 enrichment R
B9	0.939 enrichment R
B10	0.947 enrichment R
B11	1.27 enrichment R
B12	1.13 enrichment R
B13	0.463 enrichment R
B14	0.696 enrichment R
B15	1.19 enrichment R
B16	1.21 enrichment R
B17	0.957 enrichment R
B18	1.09 enrichment R
B19	1.32 enrichment R
B20	0.515 enrichment R
B21	2.2 enrichment R
B22	0.889 enrichment R
